Data taken from patent EP4692114A1, “CALCITONIN ANALOGUE, AND DERIVATIVE THEREOF AND USE THEREOF” (Hangzhou Sciwind Biosciences Co., Ltd., priority 2023, dated 2024).
At least one peptide structure holds a part that was inferred or is arguable (an end, a ring closure or a residue). For part of these data: At least one structure is not confirmed: it was looked up by name or label, or the drawing left a doubt. *1 amine or outer side, *2 acyl side, *3 side chain or, on linkers, in order; H or OH if unused. Where a SMILES comes first, the peptide text is derived from it. [ ]: non-standard residue; d: D form. The star is where a group is joined. C20 diacid = O=C(O)CCCCCCCCCCCCCCCCCCC(=O)*; C18 diacid = O=C(O)CCCCCCCCCCCCCCCCC(=O)*; γGlu = O=C(O)[C@H](CCC(=O)[*:2])N[*:1]; Hyp = O=C(O)[C@@H]1C[C@@H](O)CN1; Trx = NC[C@H]1CC[C@H](C(=O)O)CC1; Aib = CC(C)(N)C(=O)O

Tests used:
[1] = Heat accelerated stability assay under a neutral condition; format: physicochemical; settings: pH about 7.4, 40°C; for Changes in characteristics or properties, 0d / Changes in characteristics or properties, 7d: 1 mg/mL, phosphate; for Concentration change (7d-0d)/%: Day 7 vs Day 0, reversed phase chromatography; for Purity Change% (7d-0d): purity from reversed phase chromatography-214 nm, Day 7 vs Day 0
Method: The lyophilized powder (1 mg/mL) of calcitonin analogues or derivatives prepared in accordance with the method of Example 1 were mixed with sodium dihydrogen phosphate (1.42 mg/mL) and dissolved in ultrapure water in the indicated mass-volume ratios. After adjusting pH to about 7.4 with hydrochloric acid/sodium hydroxide, the solution was filtered into a sterilized vial in a clean bench using a 0.22 µm sterile filter. The vial was then capped and placed into the stability test chamber at 40°C. Detections were made on Days 7 (7d) and 26 (26d), and during the assay, changes in the characteristics and properties of the polypeptides were observed and recorded. The sample was then centrifuged for 3 min at 10000 rpm at 4°C, and the supernatant was transferred to a liquid phase sample vial for detecting the concentration and purity of the polypeptides using liquid phase chromatography described as below, wherein the concentration of the polypeptide = peak area/injection volume/extinction coefficient/60×flow rate, and the purity of the polypeptide = target peak area/total peak area× 100%.
Conditions of the reversed phase chromatography Flow rate: 1.0 ml/min; Autosampler temperature: 15°C; Column temperature: 25°C; Detection wavelengths: 280 nm and 214 nm; Mobile phase A: 100% H2O+0.05% TFA; Mobile phase B: 100% ACN; and Gradient of elution listed in Table 4: Table 4. Listing of the gradient of elution in the liquid phase chromatography
Results were shown below in Tables 5, 6, and 7. A difference of more than 5% in content as compared with the initial value was typically assumed (for example, as prescribed by the Chinese Pharmacopeia (2020 Edition)) to be a significant change. Within a reasonable margin of error, a decrease of less than 1% from the initial value to the detected content is denoted as "no change" below. Table 5. Changes in characteristics or properties in the heat accelerated stability assay

human amylin receptors = target: T1, human amylin receptors (Homo sapiens, UniProt O60896+P30988); assay: Luciferase assay of amylin (amylin receptor/CRE-luc cell line); format: cell-based; settings: stably transfected amylin receptor/CRE-luc CHO cells (CHO-K1/Gal5/AMY3), 24 hours incubation, luciferase readout
T1 sequence (P30988 25-474): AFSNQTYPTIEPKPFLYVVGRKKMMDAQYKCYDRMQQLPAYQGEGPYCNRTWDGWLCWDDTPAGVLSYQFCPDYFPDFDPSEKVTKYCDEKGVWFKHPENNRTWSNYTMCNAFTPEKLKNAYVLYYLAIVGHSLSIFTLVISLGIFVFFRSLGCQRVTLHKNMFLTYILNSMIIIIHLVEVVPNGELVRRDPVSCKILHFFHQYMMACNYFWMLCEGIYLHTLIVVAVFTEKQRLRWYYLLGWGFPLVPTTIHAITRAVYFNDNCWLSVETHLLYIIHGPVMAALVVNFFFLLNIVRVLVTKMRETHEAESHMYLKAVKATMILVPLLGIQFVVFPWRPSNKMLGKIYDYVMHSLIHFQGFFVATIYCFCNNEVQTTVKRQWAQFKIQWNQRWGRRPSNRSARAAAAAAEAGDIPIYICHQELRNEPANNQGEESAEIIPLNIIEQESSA
T1 sequence (O60896 24-148 partner): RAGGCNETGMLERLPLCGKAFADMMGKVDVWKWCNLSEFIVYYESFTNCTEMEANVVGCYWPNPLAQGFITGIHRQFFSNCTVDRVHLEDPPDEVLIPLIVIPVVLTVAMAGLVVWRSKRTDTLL

Compound	Changes in characteristics or properties, 0d [1]	Changes in characteristics or properties, 7d [1]	Concentration change (7d-0d)/% [1]	Purity Change% (7d-0d) [1]	EC50 (human amylin receptors)
CC(C)C[C@H](NC(=O)[C@H](CCCNC(=N)N)NC(=O)CNC(=O)[C@H](CC(C)C)NC(=O)[C@@H](NC(=O)[C@H](C)NC(=O)[C@@H](NC(=O)[C@H](CO)NC(=O)[C@H](CC(C)C)NC(=O)[C@H](CCC(N)=O)NC(=O)[C@H](CO)NC(=O)[C@H](C)NC(=O)CC[C@H](NC(=O)CCCCCCCCCCCCCCCCCCC(=O)O)C(=O)O)[C@@H](C)O)C(C)C)C(=O)N[C@@H](CO)C(=O)NC(C)(C)C(=O)N[C@@H](CCC(=O)O)C(=O)N[C@@H](CC(C)C)C(=O)N[C@@H](Cc1c[nH]cn1)C(=O)N[C@@H](CCCNC(=N)N)C(=O)N[C@@H](CC(C)C)C(=O)N[C@@H](CCC(N)=O)C(=O)N[C@@H](CC(=O)O)C(=O)N[C@@H](Cc1ccc(O)cc1)C(=O)N1CCC[C@H]1C(=O)N[C@@H](CCCNC(=N)N)C(=O)N[C@H](C(=O)N[C@@H](CC(=O)O)C(=O)N[C@H](C(=O)NCC(=O)N[C@@H](CO)C(=O)NCC(=O)N[C@@H](CO)C(=O)N1CCC[C@H]1C(N)=O)C(C)C)[C@@H](C)O [M10] ({C20 diacid-γGlu}-ASQLSTAVLGRLS[Aib]ELHRLQDYPRTDVGSGSP-NH2)	Clear	Clear	No change (a decrease of less than 1% from the initial value to the detected content is denoted as "no change")	No change (a decrease of less than 1% from the initial value to the detected content is denoted as "no change")	0.016 nM
CC(C)C[C@H](NC(=O)[C@H](CCCNC(=N)N)NC(=O)CNC(=O)[C@H](CC(C)C)NC(=O)[C@@H](NC(=O)[C@H](C)NC(=O)[C@@H](NC(=O)[C@H](CO)NC(=O)[C@H](CC(C)C)NC(=O)[C@H](CCC(N)=O)NC(=O)[C@H](CO)NC(=O)[C@H](C)NC(=O)CC[C@H](NC(=O)CCCCCCCCCCCCCCCCCCC(=O)O)C(=O)O)[C@@H](C)O)C(C)C)C(=O)N[C@@H](CO)C(=O)N[C@@H](CO)C(=O)N[C@@H](CCC(=O)O)C(=O)N[C@@H](CC(C)C)C(=O)N[C@@H](Cc1c[nH]cn1)C(=O)N[C@@H](CCCNC(=N)N)C(=O)N[C@@H](CC(C)C)C(=O)N[C@@H](CCC(N)=O)C(=O)N[C@@H](CC(=O)O)C(=O)N[C@@H](Cc1ccc(O)cc1)C(=O)N1CCC[C@H]1C(=O)N[C@@H](CCCNC(=N)N)C(=O)N[C@H](C(=O)N[C@@H](CC(=O)O)C(=O)N[C@H](C(=O)NCC(=O)N[C@@H](CO)C(=O)NCC(=O)N[C@@H](CO)C(=O)N1CCC[C@H]1C(N)=O)C(C)C)[C@@H](C)O [M11] ({C20 diacid-γGlu}-ASQLSTAVLGRLSSELHRLQDYPRTDVGSGSP-NH2)	Clear	Clear	No change (a decrease of less than 1% from the initial value to the detected content is denoted as "no change")	No change (a decrease of less than 1% from the initial value to the detected content is denoted as "no change")	0.017 nM
CC(C)C[C@H](NC(=O)[C@H](CCCNC(=N)N)NC(=O)CNC(=O)[C@H](CC(C)C)NC(=O)[C@@H](NC(=O)[C@H](C)NC(=O)[C@@H](NC(=O)[C@H](CO)NC(=O)[C@H](CC(C)C)NC(=O)[C@H](CCC(N)=O)NC(=O)[C@H](CO)NC(=O)[C@H](C)NC(=O)CC[C@H](NC(=O)CCCCCCCCCCCCCCCCCCC(=O)O)C(=O)O)[C@@H](C)O)C(C)C)C(=O)N[C@@H](CO)C(=O)N[C@@H](CCC(N)=O)C(=O)N[C@@H](CCC(=O)O)C(=O)N[C@@H](CC(C)C)C(=O)N[C@@H](Cc1c[nH]cn1)C(=O)N[C@@H](CCCNC(=N)N)C(=O)N[C@@H](CC(C)C)C(=O)N[C@@H](CCC(N)=O)C(=O)N[C@@H](CC(=O)O)C(=O)N[C@@H](Cc1ccc(O)cc1)C(=O)N1CCC[C@H]1C(=O)N[C@@H](CCCNC(=N)N)C(=O)N[C@H](C(=O)N[C@@H](CC(=O)O)C(=O)N[C@H](C(=O)NCC(=O)N[C@@H](CO)C(=O)NCC(=O)N[C@@H](CO)C(=O)N1C[C@H](O)C[C@H]1C(N)=O)C(C)C)[C@@H](C)O [M22] ({C20 diacid-γGlu}-ASQLSTAVLGRLSQELHRLQDYPRTDVGSGS[Hyp]-NH2)	Clear	Clear	No change (a decrease of less than 1% from the initial value to the detected content is denoted as "no change")	No change (a decrease of less than 1% from the initial value to the detected content is denoted as "no change")	0.017 nM
CC(C)C[C@H](NC(=O)[C@H](CCCNC(=N)N)NC(=O)CNC(=O)[C@H](CC(C)C)NC(=O)[C@@H](NC(=O)[C@H](C)NC(=O)[C@@H](NC(=O)[C@H](CO)NC(=O)[C@H](CC(C)C)NC(=O)[C@H](CCC(N)=O)NC(=O)[C@H](CO)NC(=O)[C@H](C)NC(=O)[C@H](CCC(=O)O)NC(=O)CCCCCCCCCCCCCCCCC(=O)O)[C@@H](C)O)C(C)C)C(=O)N[C@@H](CO)C(=O)N[C@@H](CCC(N)=O)C(=O)N[C@@H](CCC(=O)O)C(=O)N[C@@H](CC(C)C)C(=O)N[C@@H](Cc1c[nH]cn1)C(=O)N[C@@H](CCCNC(=N)N)C(=O)N[C@@H](CC(C)C)C(=O)N[C@@H](CCC(N)=O)C(=O)N[C@@H](CC(=O)O)C(=O)N[C@@H](Cc1ccc(O)cc1)C(=O)N1CCC[C@H]1C(=O)N[C@@H](CCCNC(=N)N)C(=O)N[C@H](C(=O)N[C@@H](CC(=O)O)C(=O)N[C@H](C(=O)NCC(=O)N[C@@H](CO)C(=O)NCC(=O)N[C@@H](CO)C(=O)N1CCC[C@H]1C(N)=O)C(C)C)[C@@H](C)O [M24] ({C18 diacid}-EASQLSTAVLGRLSQELHRLQDYPRTDVGSGSP-NH2)	Clear	Clear	No change (a decrease of less than 1% from the initial value to the detected content is denoted as "no change")	No change (a decrease of less than 1% from the initial value to the detected content is denoted as "no change")	0.016 nM
CC(C)C[C@H](NC(=O)[C@H](CCCNC(=N)N)NC(=O)CNC(=O)[C@H](CC(C)C)NC(=O)[C@@H](NC(=O)[C@H](C)NC(=O)[C@@H](NC(=O)[C@H](CO)NC(=O)[C@H](CC(C)C)NC(=O)[C@H](CCC(N)=O)NC(=O)[C@H](CO)NC(=O)[C@H](C)NC(=O)[C@H]1CC[C@H](CNC(=O)CCCCCCCCCCCCCCCCCCC(=O)O)CC1)[C@@H](C)O)C(C)C)C(=O)N[C@@H](CO)C(=O)N[C@@H](CCC(=O)O)C(=O)N[C@@H](CCC(=O)O)C(=O)N[C@@H](CC(C)C)C(=O)N[C@@H](Cc1c[nH]cn1)C(=O)N[C@@H](CCCNC(=N)N)C(=O)N[C@@H](CC(C)C)C(=O)N[C@@H](CCC(N)=O)C(=O)N[C@@H](CC(=O)O)C(=O)N[C@@H](Cc1ccc(O)cc1)C(=O)N1CCC[C@H]1C(=O)N[C@@H](CCCNC(=N)N)C(=O)N[C@H](C(=O)N[C@@H](CC(=O)O)C(=O)N[C@H](C(=O)NCC(=O)N[C@@H](CO)C(=O)NCC(=O)N[C@@H](CO)C(=O)N1CCC[C@H]1C(N)=O)C(C)C)[C@@H](C)O [M55] ({C20 diacid-Trx}-ASQLSTAVLGRLSEELHRLQDYPRTDVGSGSP-NH2)					0.017 nM
